Results from the supplement of paper PMC3334620.
Over roughly 33,000 sequences, “E-score (-0.5 to 0.5)” has its median near -0.04; the highest 2% begin near 0.36. The list shows a part of the results.

molecular target: T1, Hmlalpha2 (UniProt P0CY09); assay: PBM E-score (8-mer binding enrichment) (E-score (-0.5 to 0.5)); higher = stronger / more preferred TF binding; most listed sequences are background and not binding sites; settings: protein concentration: 200 nM; construct: GST-full length
T1 sequence: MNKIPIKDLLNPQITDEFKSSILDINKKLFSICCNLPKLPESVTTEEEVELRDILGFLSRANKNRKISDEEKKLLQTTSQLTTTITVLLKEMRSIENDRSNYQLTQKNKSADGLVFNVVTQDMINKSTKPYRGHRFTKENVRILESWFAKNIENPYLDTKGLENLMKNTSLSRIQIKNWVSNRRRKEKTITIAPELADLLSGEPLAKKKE
Procedure: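 Universal 'all 10-mer' protein binding microarrays (Agilent AMADID 015681) probed with GST-tagged S. cerevisiae TFs (full-length or DBD) made by in vitro transcription/translation (PURExpress), about 100-200 nM. Bound TF was detected with fluorescent anti-GST. Each ungapped 8-mer (which stands for itself and its reverse complement) is scored by the PBM enrichment score (E-score), a modified Wilcoxon-Mann-Whitney statistic from -0.5 to +0.5, computed with the Universal PBM Analysis Suite. Scale: above 0.35 generally sequence-specific binding.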

Sequence | PBM E-score
ATTTGGAC | 0.0778
GCTACTAC | 0.0679
CGGTCATA | -0.265
AAGCACGT | 0.211
GGTAGGAC | -0.248
AGGTCACG | -0.118
ATAGCGGC | -0.154
ATATTAGC | 0.00321
AATGACAC | 0.216
CCTAGCAC | 0.0129
CCGGACAG | -0.198
CATAGAGA | 0.0234
CAATTACA | 0.445
ACCACCGC | -0.173
AGACGCTA | -0.0807
AATGGCAA | -0.00778
CCCGGAAG | -0.263
CCCGCCTC | -0.115
ACTATAGC | -0.0718
ACGTTCAC | 0.136
CTGTACAC | 0.291
CGGAAATC | -0.192
CTCGACGC | 0.12
TAAGATTA | 0.0218
CCAGATGG | -0.196

Sequence | PBM E-score
CCATCTAC | 0.0186
CGCAAAGA | 0.0517
ATTAATGC | 0.035
ACCCGCTC | -0.247
GAATGCAC | 0.0794
CACAAGAG | 0.034
GCTGCTCA | -0.0809
ATGGATCG | 0.0875
AGAACTAC | 0.0478
CACCGCTG | -0.119
GAAGCCAA | -0.276
CAGCATGC | 0.0476
ATGGCTCG | -0.1
CGACAAGA | 0.0828
ATCCTTCC | -0.239
TGCGCGCA | 0.196
CTCACTCA | -0.031
ATAGGGAA | -0.214
GGCACTCA | -0.166
TAATTAGA | 0.167
AATGCCGG | -0.0387
TGACATCA | 0.0838
ACACGTTC | 0.303
AGCCATTA | 0.139
ACCATCGA | 0.00536

Sequence | PBM E-score
GTCAGCAA | 0.0177
AAGAAACC | -0.114
ACATTTGA | 0.239
AATCTTGC | 0.00926
TAAGCGAA | 0.122
ACGGCCGG | -0.202
CATAGGCC | 0.0507
GTTGCAAC | 0.128
CTACATAA | 0.317
CTAAAGTC | -0.213
TATAACCA | 0.118
ACTATTAC | 0.304
CCTGGAGC | -0.146
AAGAGCTA | 0.0655
CTTGGCGA | -0.179
CAAGGATG | 0.0173
AGACCAAC | -0.0666
CCAACCTC | -0.128
GGCTCAAA | -0.206
ACTCGCCC | -0.231
AAAAATAT | 0.125
GCGATCAC | -0.0522
CGTGAACG | -0.104
CCATTCCC | -0.33
ACGCTATG | 0.0929

Sequence | PBM E-score
CTAGGATA | -0.0196
AAAACGTA | 0.27
CGTTCACC | -0.108
ATTGATTG | 0.093
GCTTTAAC | 0.236
ATAAATTG | 0.228
AAAACATA | 0.39
AGTATCTC | -0.0491
AATACGTG | 0.383
GACGGATC | -0.0606
GACTTTGC | -0.165
CCCGCGCG | -0.029
GAGAGAAA | -0.0112
GCCAGCTA | 0.0125
GGCCGGAC | -0.244
CGGGTGAA | 0.0356
ATCCAGGG | -0.156
CTGCCTAC | 0.0431
CGTCGCCA | -0.158
AGTCCGGG | -0.136
GCTATTCA | 0.0214
GGACCCAA | -0.35
TAACCGTA | -0.0541
AGCACCTG | -0.155
GCTATACC | -0.0501

Sequence | PBM E-score
CGCTCACC | -0.249
AATGCCAA | -0.0654
ACCTGCCC | -0.191
AAACAAGC | 0.217
AACGGTCC | -0.257
GTTACGGA | 0.0213
ACACTCAA | 0.163
TACTCGCA | 0.0348
AAGCTACC | 0.0752
GGCCCGAC | -0.353
AACTCTTA | 0.21
ATGTATTA | 0.428
ATCGAGGA | -0.0222
CGCACCGC | -0.177
GACATCGA | -0.0282
ATTTGTTC | 0.235
ACTCTCTG | -0.0846
CGCACGCC | -0.0875
GGTCGTAA | 0.159
AAGGTGCG | -0.0969
GCTGTACC | -0.204
CCGGGACA | -0.151
AGGATTAG | -0.0382
GAGACAAC | -0.00556
AAAGCAGT | -0.0605

Sequence | PBM E-score
AGGTTAAT | 0.182
ACTCAGAA | -0.0459
CAGACCTG | -0.258
AACGAGGG | -0.0141
CTTATCTC | -0.178
GAGTGTCC | -0.156
ACATTCAA | -0.0317
AGGCATAC | 0.0104
AATAACCT | 0.104
AATGGCCC | -0.159
ACGTCACG | 0.102
CGGAATGC | -0.258
CCATCATA | -0.288
GAGGTGAC | -0.131
AGCTTACC | -0.218
GCTGAAAA | 0.136
AACACCAC | 0.127
AGTAGTCA | -0.00856
CGGATCCA | -0.216
GAAGGCTA | -0.15
CTATGAAC | 0.131
CTGAGAAA | 0.00705
CTCTTTTC | -0.175
AACACGAA | 0.386
GACGTGTA | 0.41

Sequence | PBM E-score
AAGATGCG | -0.191
CTCCCGGA | -0.296
AGGTTTAC | 0.258
AGAGGACT | -0.34
GGGTATCA | -0.118
ATCCGATA | -0.0739
AAGTACAA | 0.199
CTCCCCTC | -0.202
CACGACAA | 0.197
TCGATCCA | 0.0594
ATGCGCGA | -0.122
ATCACAAG | 0.137
ACTGGAGA | -0.264
ATGCTTGA | 0.0548
ATCAGCAA | -0.23
AAAGACCC | 0.0299
CAAAGTTG | 0.0739
AAGAACAT | 0.309
CACATCGA | 0.0215
ATATTCGC | 0.0866
AAGGGGAT | -0.102
GTCCGAGA | 0.0129
